Measured values reported in paper PMC4336329 (PLoS ONE, 2015).
In all, about 310,000 compounds went through this assay and about 2,200 (0.71%) showed an effect of 50% or more. Effects have a minus sign here. This is one part of the list. Where a SMILES comes first, the peptide text is derived from it. The star is where a group is joined. Boc = CC(C)(C)OC(=O)*

biological target: human ether-à-go-go-related gene (hERG) potassium channel (human, UniProt Q12809); experiment: primary screen, population patch clamp on CHO cells stably expressing hERG
Sequence (Q12809 whole entry, looked up): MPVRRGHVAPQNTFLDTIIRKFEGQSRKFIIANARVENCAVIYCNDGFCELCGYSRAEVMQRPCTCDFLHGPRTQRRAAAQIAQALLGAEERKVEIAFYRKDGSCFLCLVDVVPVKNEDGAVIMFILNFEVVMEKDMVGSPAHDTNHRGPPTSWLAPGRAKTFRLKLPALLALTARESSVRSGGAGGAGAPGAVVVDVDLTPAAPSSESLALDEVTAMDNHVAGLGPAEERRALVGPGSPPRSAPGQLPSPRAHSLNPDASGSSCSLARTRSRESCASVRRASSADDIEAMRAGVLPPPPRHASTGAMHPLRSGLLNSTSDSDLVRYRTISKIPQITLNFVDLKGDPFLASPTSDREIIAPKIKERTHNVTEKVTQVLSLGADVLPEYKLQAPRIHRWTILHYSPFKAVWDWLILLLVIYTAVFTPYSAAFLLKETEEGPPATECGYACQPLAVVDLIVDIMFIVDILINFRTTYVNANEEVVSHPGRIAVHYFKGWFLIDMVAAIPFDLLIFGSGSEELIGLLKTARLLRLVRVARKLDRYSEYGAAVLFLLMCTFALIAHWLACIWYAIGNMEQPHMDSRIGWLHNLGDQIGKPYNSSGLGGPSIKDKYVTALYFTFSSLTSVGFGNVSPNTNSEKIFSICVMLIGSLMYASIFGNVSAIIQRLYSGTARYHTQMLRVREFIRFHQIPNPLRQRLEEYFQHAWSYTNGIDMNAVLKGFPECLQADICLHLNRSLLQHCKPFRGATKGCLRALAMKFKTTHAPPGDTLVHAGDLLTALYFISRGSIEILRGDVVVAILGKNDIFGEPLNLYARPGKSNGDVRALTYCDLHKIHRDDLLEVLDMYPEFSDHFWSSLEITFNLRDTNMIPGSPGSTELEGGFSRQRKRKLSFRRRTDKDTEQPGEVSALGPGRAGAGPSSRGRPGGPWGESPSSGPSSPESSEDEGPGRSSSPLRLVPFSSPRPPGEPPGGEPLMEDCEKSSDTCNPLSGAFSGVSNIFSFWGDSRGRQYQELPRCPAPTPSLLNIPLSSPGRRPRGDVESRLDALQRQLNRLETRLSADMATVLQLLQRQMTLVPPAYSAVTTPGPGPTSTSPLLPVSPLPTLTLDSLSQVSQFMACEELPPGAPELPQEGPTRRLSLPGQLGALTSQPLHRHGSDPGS

SMILES | hERG current change (%, negative = inhibition) at 1uM
COc1ccc(-c2nnc(SCC(=O)Nc3ccccc3)n2C)cc1 | 5.24%
O=C(NC(Cc1ccccc1)C(=O)O)/C(=C/c1ccccc1)NC(=O)c1ccc(Br)o1 (stereo not drawn) | 15.2%
CCn1cc(C(=O)NN)c(=O)c2cc(F)c(N3CCN(C)CC3)cc21 | 16.1%
O=C(CN1C(=O)C2CC=CCC2C1=O)OCc1cc(=O)n2cc(Br)ccc2n1 (stereo not drawn) | -6.54%
CCOC(=O)c1c(C)c(C(=O)Nc2ccc3c(c2)OCCO3)c(C)n1CC | 15.6%
Cc1ccc(S(=O)(=O)N2CCC(C(=O)OCC(=O)N(Cc3ccccc3)C(C)(C)C)CC2)cc1C | 2.42%
CCCCN=C1CC(C)(C)CC(=O)/C1=C(/O)CCC | 8.96%
O=C1CCc2ccccc2N1 | 16.3%
COCCn1c(SCC(=O)NC(=O)NC2CCCC2)nc2ccccc2c1=O | 1.9%
O=C1CCN(CCc2ccccc2)CCN1[C@H](COc1ccccc1)c1ccccc1 | -82.8%
CCOc1ccc(CC(=O)Nc2nccs2)cc1OCC | -0.677%
O=C(NCc1ccccc1)C(c1ccc(F)cc1)N(C(=O)c1csnn1)C1CC1 (stereo not drawn) | 7.98%
CCn1c(SCC(=O)Nc2ccc(OC)cc2)nc2c1c(=O)n(C)c(=O)n2C | 3.11%
Cc1ccc(C)c(NC(=O)CN(C)C(=O)c2ccccc2Cc2ccccc2)c1 | -10.8%
O=C(NCc1n[nH]c(=S)n1Cc1ccccc1)c1ccccc1 | 3.18%
COCCN(Cc1ccc(F)cc1)C(=O)c1cc2ccccc2oc1=O | 10.2%
CCCCc1nnc(SC(C)C(=O)Nc2nccs2)n1C (stereo not drawn) | 12%
CCOc1cc(NC(=O)c2ccccc2[N+](=O)[O-])c(OCC)cc1NC(=O)CC(C)C | 12.5%
CC1CN(C(=O)CCC(=O)NCc2ccccn2)c2ccccc2O1 (stereo not drawn) | 12.4%
CC1(C)CNC(=O)CC(C)(C)N1 | -0.397%
CCN(CC)CCCCNc1ncc2cc(-c3cc(OC)cc(OC)c3)c(NC(=O)NC(C)(C)C)nc2n1 | 1.26%
COc1ccc(C(=O)NCC2(c3ccccc3)CCOCC2)cc1 | 13.5%

SMILES | hERG current change (%, negative = inhibition) at 1uM
COc1ccccc1OCCn1cc(C(=O)C(C)C)c2ccccc21 | 12.4%
CC(OC(=O)c1nn(C(C)C)c(=O)c2ccccc12)C(=O)Nc1ncc(Cl)cc1Cl (stereo not drawn) | 16.9%
Oc1[nH]c2ccccc2c1N=Nc1nc(Nc2ccccc2)nc(N2CCOCC2)n1 | -2.39%
COc1ccc(OCC(=O)NNC(=S)NC(=O)c2ccc([N+](=O)[O-])cc2)cc1 | 9.67%
NC(=O)c1cc(C(=O)Cc2ccc(Cl)cc2)c[nH]1 | 13.6%
O=C(CSc1nc2c(cnn2-c2ccccc2)c(=O)[nH]1)NC1CCS(=O)(=O)C1 (stereo not drawn) | 14.8%
COc1ccc(CNC(=O)c2ccccc2C(=O)O)cc1 | 0.458%
CCN(C(=O)CN1C(=O)c2ccccc2S1(=O)=O)C1CCCCC1 | -3.31%
O=C(CCc1ccccc1)NNC(=O)c1ccco1 | 12.2%
CC(C)c1ccc(N2CC(C)(C)C2=O)cc1 | 9.3%
O=C(NCCNC(=O)c1ccccn1)c1ccc(F)cc1 | 16.3%
O=S(=O)(c1ccccc1)c1cnc(-c2ccccc2)nc1N1CCCCC1 | 18.7%
CCOC(=O)CC(NC(=O)c1cccs1)c1ccc(C)cc1 (stereo not drawn) | 18.1%
CC(C)(C)c1cc(C(=S)N2CCCC2)cc(C(C)(C)C)c1O | 22.3%
COc1ccc(C(=O)NNC(=O)CSc2nnnn2C)cc1 | 2.17%
COc1cccc(C2C(=O)c3ccccc3C2=O)c1 | 16.8%
NC(=O)C1CCN(CC(=O)Nc2cc(S(=O)(=O)N3CCOCC3)ccc2N2CCCC2)CC1 | -1.18%
Cc1ccc(-c2nn3cnnc3c3ccccc23)cc1 | 2.01%
O=C(COC(=O)c1ccc(O)cc1)Nc1ccccc1-c1ccccc1 | 4.16%
CC(C)c1nc(SCC(=O)Nc2cccc(C(F)(F)F)c2)c2c(=O)n(C)c(=O)n(C)c2n1 | -1.24%
O=C(Cn1cc(C(=O)c2cccs2)c2ccccc21)NC1CCCCC1 | 1.49%
O=C(NCc1ccc(F)cc1)C1CCCN1C(=O)Nc1ccc(Cl)cc1 (stereo not drawn) | 9.95%

SMILES | hERG current change (%, negative = inhibition) at 1uM
Cn1cnnc1SCC(=O)NC1CCCCCC1 | 12.2%
CC(=O)Nc1cccc(-c2csc(Nc3ccc(Cl)cn3)n2)c1 | 2.04%
COC(=O)C(Cc1ccccc1)NC(=O)C(CC(C)C)NC(=O)OC(C)(C)C (stereo not drawn) (Boc-Leu-Phe-OMe; configuration not given here) | 14.2%
COc1ccccc1C(=O)O/N=C(\c1ccccc1)c1ccncc1 | 9.94%
CCc1ccccc1NC(=S)NCCSc1ccc(Cl)cc1 | 12.6%
Cc1ccc2nc(/C(C#N)=C/c3ccccc3C(=O)O)[nH]c2c1 | 11.5%
Cc1cnc(C)c(N2CCN(Cc3nc(-c4cccc(F)c4F)oc3C)CC2)n1 | -0.107%
CCCCCCn1c(N2CCC(C(N)=O)CC2)nc2c1c(=O)n(C)c(=O)n2C | -2.94%
CC(C)(C)OC(=O)N[C@@H](Cc1ccccc1)C(=O)N1CCC(C(=O)N[C@@H](CCC(N)=O)C(=O)O)CC1 | 7.05%
CN1C(=O)/C(=C/c2ccc(C(=O)NC3CCCC3)cc2)Oc2ccccc21 | 20.1%
O=C(Nc1ccc(Br)cc1F)c1ccc2c(c1)N(Cc1ccccc1)C(=O)CS2=O (stereo not drawn) | 7.73%
Cc1ccc(-c2nc(C)sc2CC(=O)OCC(=O)Nc2ccc(F)c(Cl)c2)cc1 | 4.59%
CCOCCc1nnc(NC(=O)Cc2ccccc2)s1 | 6.58%
CCOc1ccccc1-c1noc(CCC(=O)Nc2cccnc2)n1 | 4.72%
Cc1nn(Cc2ccccc2)c(N)c1C#N | 8.66%
CCCCNc1nc2c(c(=O)n(C)c(=O)n2C)n1CCC | 15.3%
CC(=O)NCc1ccc(-c2csc(-c3cccs3)n2)cc1 | 0.835%
CCN(Cc1ccccc1)C(=O)CN1C(=O)c2ccccc2S1(=O)=O | 3.6%
CN(C)/C=C/C(=O)/C=C/c1ccc(Cl)cc1Cl | 5.3%
COc1ccc(Cl)cc1NC(=O)CCNS(=O)(=O)c1cccc2nonc12 | 11.8%
O=c1cc(-c2ccccc2)nc(N2CCCCC2)[nH]1 | 5.54%
CN(C)S(=O)(=O)c1ccc2nc(NC(=O)c3cccs3)sc2c1 | 1.11%

SMILES | hERG current change (%, negative = inhibition) at 1uM
Cc1nnc(-c2cnn(-c3ccccc3)c2N)n1Cc1ccc(F)cc1 | -4.86%
CC(C)CCN(C(=S)Nc1cccc(C(F)(F)F)c1)C(C)c1ccccn1 (stereo not drawn) | 10.7%
Cc1nn(-c2ccccc2)c(Cl)c1/C=N/Nc1ccc(S(=O)(=O)Nc2ccccc2C(=O)O)cc1[N+](=O)[O-] | 5.98%
CSc1nc(-c2ccc(C)cc2)nc(N)c1C#N | 16.3%
O=C(CN1CCN(S(=O)(=O)c2cccc(F)c2)CC1)NCC1(N2CCOCC2)CCCCC1 | 3.95%
Cc1ccc(C(C(=O)NCC2CCCO2)N(Cc2ccccc2)C(=O)c2ccc(-c3ccccc3)[nH]2)o1 (stereo not drawn) | 6.96%
C#CCOCCOCCOCCNc1nc(N2CCN(C(=O)[C@H](Cc3ccc(O)cc3)n3cc([C@@H](N)C(C)CC)nn3)CC2)nc(N2CCN(C(=O)[C@H](CCCCN)n3cc([C@@H](N)CC(C)C)nn3)CC2)n1.Cl (stereo partly drawn) | 9.13%
CCCN(CCC)C(=O)c1ccc2nc(-c3ccc(OC)c(OC)c3)c(-c3ccc(OC)c(OC)c3)nc2c1 | 3.73%
c1ccc(-c2nnc3n2CCCC3)cc1 | 8.13%
Cc1cccc(NC(=O)COc2cccc3c2CCN(C)C3=O)c1 | 8.69%
Oc1ccc(/C=N/Nc2cccc(Cl)n2)c(O)c1 | 12.7%
CCOc1ccc(CCNC(=O)c2ccccc2OCc2c(C)noc2C)cc1OCC | -0.854%
CCc1ccc2c(c1)C(C)=CC(C)(C)N2 | 12.1%
CC(=NCc1ccc2c(c1)OCO2)C1=C(O)c2ccccc2C1=O | 9.87%
CC(C(=O)N1CCc2ccccc21)n1cccc1 (stereo not drawn) | 13.6%
O=C(NN1C(=O)/C(=C\c2cccnc2)SC1=S)c1ccco1 | 6.88%
Cc1ccc2c(c1Cl)NC(C(=O)O)C1CC(Sc3ccccc3[N+](=O)[O-])C(Cl)C21 (stereo not drawn) | -3.46%
Cc1cc(N2C(=O)C(O)=C(C(=O)c3cc4ccccc4o3)C2c2cccs2)no1 (stereo not drawn) | 18.8%
COc1ccccc1CNC(=O)C(C)Sc1ccc(C)cc1 (stereo not drawn) | 7.45%
c1ccc2c(OCCCCN3CCCC3)cccc2c1 | 10.3%
COc1ccc(C(=O)NCCNc2ccc([N+](=O)[O-])cc2)cc1OC | 6.29%
